According to PubChem BioAssay AID686971 (National Center for Advancing Translational Sciences (NCATS), 2013):
Hit rate of the full screen: of about 360,000 compounds, about 7,500 (2.1%) were called active. Inconclusive results, whose numbers are uncertain, are shown with a selection of clear calls. Calls come from the whole dose curve; as a rule, active = well fitted cell-killing curve with a large enough effect; inconclusive = small, poorly fitted or top-dose-only effect, or effect the other way, or another doubt; inactive = no such curve, though single readings can be large or run the other way. No potency is given beside an inconclusive call; the fits are too rough.

Assay: qHTS for induction of synthetic lethality in tumor cells producing 2HG: qHTS for the HT-1080-IDH1KD cell line
Settings: HT-1080 IDH1 knockdown viability, ATP luminescence, 48 h; series mostly up to 46.1 µM
Outline: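 After a 2 h attachment period, IDH1KD HT-1080 cells took pin-transferred compound for 48 h at 37 °C; ATP-based luminescence after 10 min room-temperature reagent incubation reported viability.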
Potency is the fitted concentration of half-maximal effect; tags give direction and shape of the fitted curve.

Row | SMILES | Potency
1 | CN(C(=O)COC(=O)c1cc([N+](=O)[O-])ccc1Cl)c1ccccc1 | inactive
2 | COc1cccc(C(=O)Nc2nc3ccccc3[nH]2)c1 | inconclusive [cytotoxic, single point]
3 | Cc1ccc(Sc2ncccc2C(=O)O)cc1 | inconclusive [rising, partial curve]
4 | CC(=O)Nc1cccc(NC(=O)CSc2ncc(-c3ccc(Cl)cc3)n2Cc2ccco2)c1 | inconclusive [cytotoxic, partial curve]
5 | CC1(C(=O)NS(=O)(=O)c2cccc(C#N)c2)CCN1C(=O)c1cccc2ccccc12 (centres undefined) | inactive
6 | Cc1nn(-c2nc3ccccc3[nH]2)c(=O)c2ccccc12 | active: 1.46 µM
7 | Cc1ccccc1OCC(O)Cn1c(=N)n(Cc2ccccc2)c2ccccc21 (centres undefined) | active: 16.4 µM
8 | COC(=O)C1=C(C)NC(C)=C(C(=O)OC)C1c1ccc(-c2cccc([N+](=O)[O-])c2)o1 | inconclusive [cytotoxic, single point]
9 | CCCCC1=CC2=C(c3ccco3)C(=O)C(C)(OC(=O)c3ccc(OC)cc3)C(=O)C2=CN1CCc1ccccn1 (centres undefined) | inactive
10 | Nc1nn(-c2ccccc2)c(N)c1N=Nc1ccccc1 | active: 16.4 µM
11 | Cc1cccc(N(C)S(=O)(=O)c2ccc(-c3cc(C)no3)s2)c1 | active: 0.58 µM
12 | CCC1CCCCN1S(=O)(=O)c1ccc(C(=O)Nc2nnc(C3=COCCO3)o2)cc1 (centres undefined) | inconclusive [cytotoxic, partial curve]
13 | CC(C)(C)c1ccc(OCCNCc2ccccc2)cc1 | active: 16.4 µM
14 | COCC(C)n1c(-c2ccc3c(c2)NC(=O)CO3)csc1=Nc1ccc(OC(F)F)cc1 (centres undefined) | inconclusive [cytotoxic, single point]
15 | COc1ccc(C2N(C(=O)CN3CCCC3)CCCN2S(=O)(=O)c2ccccc2)cc1 (centres undefined) | inactive
16 | COC(=O)[C@@]1(Cc2ccc(OC)cc2)[C@H]2c3cc(C(=O)N4CCCC4)n(Cc4ccc(Cl)c(C(F)(F)F)c4)c3C[C@H]2CN1C(=O)c1ccccc1 | inconclusive [cytotoxic, partial curve]
17 | CCCCNC1C(CC)C(CCC)C(C#N)(C#N)C1(C#N)C#N (centres undefined) | inconclusive [cytotoxic, single point]
18 | COCCn1c(SCc2nc3ccccc3c(=O)[nH]2)nc2ccccc2c1=O | inconclusive [cytotoxic, partial curve]
19 | O=C(C[C@@H]1CC[C@@H]2[C@H](COC[C@H](O)CN2C(=O)Nc2ccc(F)cc2)O1)NCCc1ccncc1 | inactive
